# In the supplement of paper PMC8728848:
# The list shows a part of the results.
# B1: Epa1-NP-mutant-E227A (Candida glabrata), Q6VBJ0 (protein)
# chain: MILNPALFLNKCVCIYTTLILLLLTNGGYATSSNDISLASKDPTTFPLGCSPDITTPKKGLSMELYSYDFRKKGSYPCWDAAYLDPNYPRTGYKSHRLLAKVDGVTGNINFYYHATKGCTPQLGHLPASYNYPKPLTMTNFTMLLYGYFRPKVTGFHTFTISADDLLFVNFGAGNAFDCCRRDSSADHFGNYQAYAIWGSKTAKDELTVHLDAGVYYPIRLFYNNRAYDGALSFTFKTESNENTVSDFSEYFFSLDDTEEGCPGLISYDSSCASVKTSKIIGIDYHTETPNENLVPITKTIYHLGIPCTGTTTTPLCGSGFYDPLANKCVTINTSSTSSVTKTTSHTTSKEVSFHSSISSQKTLIPKSIPSPYGPIKSQSIPTEMETSSEISSSEYAFSDVISTPSHSPYTKKHSSLNSSSYTSTVIHSLTSYSISQGIFSTSLSEQNITSKSSTDKFSTATSMSNNITQSSIIISQFSTNNENYTTTSMHTSSDKISTETLNNSISTTTSILFSNSSTILKNNTTIISSDKDTHYHPVNPTIVCSTNKTEIICASITQPSISNSNNHWSSSVLKFNSTTVRSTLPSSAGSNETSINVPFSSSTESNTSTSSTSTSNSKMVRSTLPSSAGSNETSISVPFSSSTESNTSTSSTSTSNSKMVRSTLPSSAGSNETSINVPFSSSTESNTSTSSTSTSNSKTVRSTPFSSAGIIMTSLSQRNNKSASSYASSNSKCYNTADSCRKVHSTPSYLLTSSYTSEGVDYDCSLVSTKLKINDTNCVNNKHTTKSCLKTSVTTTIPTLEIKTARKSSSNTIGLHSYPTSSPNKSISSAPIIGYISSFKTIKTASPSYQTSDLTTITTITSLNNPGSTAVENTHESNDKSRKTSSNDISSKHSVIKETKDAVESSNKSHQTNTLKCSSIIIASSSHNSYESLGGTTLTLTLSKVYSPQNNDTLPFLEISEVNPSRTVLPESSKMMQYLTSTEERNKTARNTIATNIVSISTFHFEGEGNAIRMGYTQLLLMLIGIIVMNIGT
# Legend:
# Assay in all cases: glycan array binding signal (z-score within array); higher = stronger binding
# Details in all cases: glycan notation: IUPAC condensed, linker removed; mutation: E227A
# [1] = molecular target: Gal(b1-4)GlcNAc(b1-3)Gal(b1-4)GlcNAc(b1-2)Man(a1-3)[Gal(b1-4)GlcNAc(b1-3)Gal(b1-4)GlcNAc(b1-2)Man(a1-6)]Man(b1-4)GlcNAc(b1-4)[Fuc(a1-6)]GlcNAc
# In short: (§1)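 Glycan array data came from 3228 arrays in the Consortium for Functional Glycomics database, and only arrays with an available protein sequence were kept. Glycan names were put into IUPAC-condensed notation, and columns mapping to the same glycan were averaged. The binding signal is a within-array Z-score, averaged across arrays of one protein sequence run at different concentrations or buffers and across linkers. A negative Z-score can be read as non-binding.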
# [2] = molecular target: Gal(b1-4)GlcNAc(b1-3)Gal(b1-4)GlcNAc(b1-2)[Gal(b1-4)GlcNAc(b1-3)Gal(b1-4)GlcNAc(b1-6)]Man(a1-6)[Gal(b1-4)GlcNAc(b1-3)Gal(b1-4)GlcNAc(b1-2)Man(a1-3)]Man(b1-4)GlcNAc(b1-4)GlcNAc
# In short: as §1
# [3] = molecular target: Gal(b1-4)GlcNAc(b1-3)Gal(b1-4)GlcNAc(b1-2)[Gal(b1-4)GlcNAc(b1-3)Gal(b1-4)GlcNAc(b1-6)]Man(a1-6)[Gal(b1-4)GlcNAc(b1-3)Gal(b1-4)GlcNAc(b1-2)Man(a1-3)]Man(b1-4)GlcNAc(b1-4)[Fuc(a1-6)]GlcNAc
# In short: as §1
# [4] = molecular target: Gal(b1-4)GlcNAc(b1-3)Gal(b1-4)GlcNAc(b1-3)Gal(b1-4)GlcNAc
# In short: as §1
# [5] = molecular target: Gal(b1-4)GlcNAc(b1-3)Gal(b1-4)GlcNAc(b1-3)Gal(b1-4)GlcNAc(b1-2)Man(a1-3)[Gal(b1-4)GlcNAc(b1-3)Gal(b1-4)GlcNAc(b1-3)Gal(b1-4)GlcNAc(b1-2)Man(a1-6)]Man(b1-4)GlcNAc(b1-4)GlcNAc
# In short: as §1
# [6] = molecular target: Gal(b1-4)GlcNAc(b1-3)Gal(b1-4)GlcNAc(b1-3)Gal(b1-4)GlcNAc(b1-2)Man(a1-3)[Gal(b1-4)GlcNAc(b1-3)Gal(b1-4)GlcNAc(b1-3)Gal(b1-4)GlcNAc(b1-2)Man(a1-6)]Man(b1-4)GlcNAc(b1-4)[Fuc(a1-6)]GlcNAc
# In short: as §1
# [7] = molecular target: Gal(b1-4)GlcNAc(b1-3)Gal(b1-4)GlcNAc(b1-3)Gal(b1-4)GlcNAc(b1-2)[Gal(b1-4)GlcNAc(b1-3)Gal(b1-4)GlcNAc(b1-3)Gal(b1-4)GlcNAc(b1-6)]Man(a1-6)[Gal(b1-4)GlcNAc(b1-3)Gal(b1-4)GlcNAc(b1-3)Gal(b1-4)GlcNAc(b1-2)Man(a1-3)]Man(b1-4)GlcNAc(b1-4)[Fuc(a1-6)]GlcNAc
# In short: as §1
# [8] = molecular target: Gal(b1-4)GlcNAc(b1-3)Gal(b1-4)GlcNAc(b1-3)Gal(b1-4)GlcNAc(b1-3)Gal(b1-4)GlcNAc(b1-2)Man(a1-3)[Gal(b1-4)GlcNAc(b1-3)Gal(b1-4)GlcNAc(b1-3)Gal(b1-4)GlcNAc(b1-3)Gal(b1-4)GlcNAc(b1-2)Man(a1-6)]Man(b1-4)GlcNAc(b1-4)GlcNAc
# In short: as §1
# [9] = molecular target: Gal(b1-4)GlcNAc(b1-3)Gal(b1-4)GlcNAc(b1-3)Gal(b1-4)GlcNAc(b1-3)Gal(b1-4)GlcNAc(b1-2)Man(a1-3)[Gal(b1-4)GlcNAc(b1-3)Gal(b1-4)GlcNAc(b1-3)Gal(b1-4)GlcNAc(b1-3)Gal(b1-4)GlcNAc(b1-2)Man(a1-6)]Man(b1-4)GlcNAc(b1-4)[Fuc(a1-6)]GlcNAc
# In short: as §1
# [10] = molecular target: Gal(b1-4)GlcNAc(b1-3)Gal(b1-4)GlcNAc(b1-3)Gal(b1-4)GlcNAc(b1-3)Gal(b1-4)GlcNAc(b1-2)[Gal(b1-4)GlcNAc(b1-3)Gal(b1-4)GlcNAc(b1-3)Gal(b1-4)GlcNAc(b1-3)Gal(b1-4)GlcNAc(b1-6)]Man(a1-6)[Gal(b1-4)GlcNAc(b1-3)Gal(b1-4)GlcNAc(b1-3)Gal(b1-4)GlcNAc(b1-3)Gal(b1-4)GlcNAc(b1-2)Man(a1-3)]Man(b1-4)GlcNAc(b1-4)[Fuc(a1-6)]GlcNAc
# In short: as §1
# [11] = molecular target: Gal(b1-4)GlcNAc(b1-3)Gal(b1-4)GlcNAc(b1-3)Gal(b1-4)GlcNAc(b1-3)Gal(b1-4)GlcNAc(b1-3)Gal(b1-4)GlcNAc(b1-2)Man(a1-3)[Gal(b1-4)GlcNAc(b1-3)Gal(b1-4)GlcNAc(b1-3)Gal(b1-4)GlcNAc(b1-3)Gal(b1-4)GlcNAc(b1-3)Gal(b1-4)GlcNAc(b1-2)Man(a1-6)]Man(b1-4)GlcNAc(b1-4)GlcNAc
# In short: as §1
# [12] = molecular target: Gal(b1-4)GlcNAc(b1-3)Gal(b1-4)GlcNAc(b1-3)Gal(b1-4)GlcNAc(b1-3)Gal(b1-4)GlcNAc(b1-3)Gal(b1-4)GlcNAc(b1-2)Man(a1-3)[Gal(b1-4)GlcNAc(b1-3)Gal(b1-4)GlcNAc(b1-3)Gal(b1-4)GlcNAc(b1-3)Gal(b1-4)GlcNAc(b1-3)Gal(b1-4)GlcNAc(b1-2)Man(a1-6)]Man(b1-4)GlcNAc(b1-4)[Fuc(a1-6)]GlcNAc
# In short: as §1
# [13] = molecular target: Gal(b1-4)GlcNAc(b1-3)Gal(b1-4)GlcNAc(b1-3)Gal(b1-4)GlcNAc(b1-3)Gal(b1-4)GlcNAc(b1-3)Gal(b1-4)GlcNAc(b1-2)[Gal(b1-4)GlcNAc(b1-3)Gal(b1-4)GlcNAc(b1-3)Gal(b1-4)GlcNAc(b1-3)Gal(b1-4)GlcNAc(b1-3)Gal(b1-4)GlcNAc(b1-6)]Man(a1-6)[Gal(b1-4)GlcNAc(b1-3)Gal(b1-4)GlcNAc(b1-3)Gal(b1-4)GlcNAc(b1-3)Gal(b1-4)GlcNAc(b1-3)Gal(b1-4)GlcNAc(b1-2)Man(a1-3)]Man(b1-4)GlcNAc(b1-4)[Fuc(a1-6)]GlcNAc
# In short: as §1
# [14] = molecular target: Gal(b1-4)GlcNAc(b1-3)Gal(b1-4)GlcNAc(b1-3)Gal(b1-4)GlcNAc(b1-3)Gal(b1-4)GlcNAc(b1-3)Gal(b1-4)GlcNAc(b1-3)Gal(b1-4)GlcNAc(b1-2)Man(a1-3)[Gal(b1-4)GlcNAc(b1-3)Gal(b1-4)GlcNAc(b1-3)Gal(b1-4)GlcNAc(b1-3)Gal(b1-4)GlcNAc(b1-3)Gal(b1-4)GlcNAc(b1-3)Gal(b1-4)GlcNAc(b1-2)Man(a1-6)]Man(b1-4)GlcNAc(b1-4)GlcNAc
# In short: as §1
# [15] = molecular target: Gal(b1-4)GlcNAc(b1-3)Gal(b1-4)GlcNAc(b1-3)GalNAc
# In short: as §1
# [16] = molecular target: Gal(b1-4)GlcNAc(b1-3)Gal(b1-4)GlcNAc(b1-3)[Gal(b1-4)GlcNAc(b1-3)Gal(b1-4)GlcNAc(b1-6)]GalNAc
# In short: as §1
# [17] = molecular target: Gal(b1-4)GlcNAc(b1-3)Gal(b1-4)GlcNAc(b1-6)[Gal(b1-3)]GalNAc
# In short: as §1
# [18] = molecular target: Gal(b1-4)GlcNAc(b1-3)Gal(b1-4)[Fuc(a1-3)]GlcNAc(b1-3)Gal(b1-4)[Fuc(a1-3)]GlcNAc
# In short: as §1
# [19] = molecular target: Gal(b1-4)GlcNAc(b1-3)GalNAc
# In short: as §1
# [20] = molecular target: Gal(b1-4)GlcNAc(b1-3)[Fuc(a1-3)GlcNAc(b1-6)]Gal(b1-4)Glc
# In short: as §1
# [21] = molecular target: Gal(b1-4)GlcNAc(b1-3)[Gal(b1-4)GlcNAc(b1-6)]Gal(b1-4)GlcNAc
# In short: as §1
# [22] = molecular target: Gal(b1-4)GlcNAc(b1-3)[GlcNAc(b1-6)]Gal(b1-4)GlcNAc
# In short: as §1
# [23] = molecular target: Gal(b1-4)GlcNAc(b1-6)Gal(b1-4)GlcNAc
# In short: as §1
# [24] = molecular target: Gal(b1-4)GlcNAc(b1-6)GalNAc
# In short: as §1
# [25] = molecular target: Gal(b1-4)GlcNAc(b1-6)[Gal(b1-3)]GalNAc
# In short: as §1
# [26] = molecular target: Gal(b1-4)GlcNAc(b1-6)[Gal(b1-4)GlcNAc(b1-3)]GalNAc
# In short: as §1
# Gal(b1-4)GlcNAc6P = molecular target: Gal(b1-4)GlcNAc6P
# In short: as §1
# Gal(b1-6)Gal = molecular target: Gal(b1-6)Gal
# In short: as §1
# Gal3S(b1-3)GalNAc = molecular target: Gal3S(b1-3)GalNAc
# In short: as §1
# Gal3S(b1-3)GlcNAc = molecular target: Gal3S(b1-3)GlcNAc
# In short: as §1
binder,measurement,setting,value
B1,glycan array binding signal (z-score),[1],0.401
same,glycan array binding signal (z-score),[2],0.503
same,glycan array binding signal (z-score),[3],0.946
same,glycan array binding signal (z-score),[4],-0.129
same,glycan array binding signal (z-score),[5],0.626
same,glycan array binding signal (z-score),[6],1.09
same,glycan array binding signal (z-score),[7],1.15
same,glycan array binding signal (z-score),[8],0.273
same,glycan array binding signal (z-score),[9],0.133
same,glycan array binding signal (z-score),[10],0.612
same,glycan array binding signal (z-score),[11],0.394
same,glycan array binding signal (z-score),[12],0.34
same,glycan array binding signal (z-score),[13],0.802
same,glycan array binding signal (z-score),[14],0.127
same,glycan array binding signal (z-score),[15],-0.164
same,glycan array binding signal (z-score),[16],0.017
same,glycan array binding signal (z-score),[17],0.755
same,glycan array binding signal (z-score),[18],-0.199
same,glycan array binding signal (z-score),[19],-0.169
same,glycan array binding signal (z-score),[20],-0.198
same,glycan array binding signal (z-score),[21],0.242
same,glycan array binding signal (z-score),[22],0.188
same,glycan array binding signal (z-score),[23],0.869
same,glycan array binding signal (z-score),[24],0.099
same,glycan array binding signal (z-score),[25],1.27
same,glycan array binding signal (z-score),[26],0.261
same,glycan array binding signal (z-score),Gal(b1-4)GlcNAc6P,-0.19
same,glycan array binding signal (z-score),Gal(b1-6)Gal,-0.133
same,glycan array binding signal (z-score),Gal3S(b1-3)GalNAc,-0.18
same,glycan array binding signal (z-score),Gal3S(b1-3)GlcNAc,-0.208
